Reference: PubChem BioAssay AID1508624 (National Center for Advancing Translational Sciences (NCATS), 2021)
Among all 48,000 compounds or so, about 120 (0.25%) were called active. Not shown: some 4% with an inconclusive outcome. Calls come from the whole dose curve; as a rule, active = well fitted activation curve with a large enough effect; inconclusive = small, poorly fitted or top-dose-only effect, or another doubt; inactive = no such curve, though single readings can be large or run the other way. Some of the results follow.

Test: Primary qHTS for Identification of Small Molecule Activators of Huntingtin-Antisense Promoter Activity; note: nearly all actives have a fitted effect of over 55% in size
Details: HEK293 HTT-AS promoter firefly luciferase reporter, 24 h; series mostly up to 57.5 µM; activity change, positive = activation: at the top concentration
Method in brief: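 HEK293 Fluc reporter, 2,500 cells/well, 24 h pre-culture; cpds up to 57.5 uM final, 24 h 37 degrees C; Dual-Glo, 10 min RT; normalized vehicle = 0%, zero RLU = -100%.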

Structure (SMILES) | activity change, positive = activation
Cc1c(C(=O)Nc2cccc(-c3nc4ccccc4s3)c2)oc2ccc(F)cc12 | inactive: -6.93%
CCn1c(CN2CCCCC2)nc2cc(NC(=O)c3cccc([N+](=O)[O-])c3)ccc21 | inactive: -2.51%
COc1cc(-c2nc(C(N)=O)c3c(n2)n(-c2cccc(C)c2)c(=O)n3C)cc(OC)c1OC | inactive: -14.1%
Cc1ccc(CNC(=O)c2nn(C)c3c2CSc2ccc(C)cc2-3)cc1 | inactive: -0.246%
N#Cc1cccc(NC(=O)C2CCN(c3nc(-c4ccc(Cl)cc4)no3)CC2)c1 | inactive: -61.7%
Cc1ccc(CCNC(=O)CSCc2nc(-c3ccc(C)cc3)oc2C)cc1 | inactive: -19.4%
COC(=O)c1ccccc1NC(=O)c1ccc(=O)n(Cc2cccc(C)c2)c1 | inactive: -25.5%
CCOc1ccc(-c2nnc(SCC(=O)Nc3cc(C)ccc3OC)o2)cc1 | inactive: -43.8%
CC(C)c1ccc(NC(=O)Cn2c3ncccc3c(=O)n2-c2ccccc2)cc1 | inactive: -4.11%
CC(C)c1ccc(OCC(=O)NCC(c2ccc(Cl)cc2)N2CCOCC2)cc1 (configuration not stated) | inactive: -31.4%
CCOC(=O)C1=C(CN2CCN(C)CC2)NC(=O)NC1c1ccc(F)cc1 (configuration not stated) | inactive: -9.09%
COc1ccc(N2C(N)=C(C#N)C(c3cc(CN4CCOCC4)cs3)C3=C2CCCC3=O)cc1 (configuration not stated) | inactive: -2.82%
Cc1nc2c(C(=O)NCCc3ccc(Cl)cc3)cnn2c(C)c1Cc1ccc(F)cc1 | inactive: -38%
CC(C)NC(=O)C1CCN(C(=O)c2cnn(-c3ccccc3)c2-n2cccc2)CC1 | inactive: -14.6%
Cc1ccc(NS(=O)(=O)c2ccc3c(c2)C(C(C)C)C(=O)N3)cc1C (configuration not stated) | inactive: -5.31%
COc1ccc(NS(=O)(=O)c2ccc(-n3cccn3)cc2)cc1OC | inactive: -89.9%
CCCSc1nc2sc3c(c2c(=O)n1-c1ccc(C)c(Cl)c1)CCN(C(C)=O)C3 | inactive: -19.8%
COc1nccc(-c2c(-c3ccc(F)cc3)ncn2C2CCNCC2)n1 | inactive: -17.8%
CN(C(=O)c1cc2nc(-c3ccc4c(c3)OCO4)cc(C(F)(F)F)n2n1)c1ccc(OC(F)(F)F)cc1 | inactive: 5.21%

Structure (SMILES) | activity change, positive = activation
Cn1nc(C(=O)NCCc2ccc(Cl)cc2)c2c1-c1ccccc1SC2 | inactive: -9.11%
CN(Cc1ccccc1)C(=O)CSc1nc(-c2ccc(F)cc2)cc(C(F)(F)F)n1 | inactive: -37%
O=C(Nc1nnc(S(=O)(=O)N2CCc3ccccc32)s1)c1cccc(Cl)c1 | inactive: -81%
CCCC(CCC)C(=O)NC1CC(=O)N(c2ccc3c(c2)OCCO3)C1 (configuration not stated) | inactive: -19.4%
Cc1ccc(/C=C(\C#N)c2nc3ccccc3c(=O)[nH]2)cc1 | inactive: -11.4%
COc1ccc(NC(=O)C2CCCN(c3nnc(C)c4c(C)n(-c5ccccc5)nc34)C2)cc1Cl (configuration not stated) | inactive: -36.9%
COCCOC(=O)c1c(-c2ccccc2)c(-c2ccccc2)nn(C)c1=O | inactive: -11.4%
CCOc1ccc(CC(=O)Nc2c(C(=O)c3ccccc3)oc3ccc(OC)cc23)cc1OCC | inactive: -7.37%
CCc1ccccc1NC(=O)Cn1c(=O)n(Cc2ccc(OC)cc2)c(=O)c2oc3ccccc3c21 | inactive: -7.16%
COc1cc2c(Oc3ccc4[nH]c(C)cc4c3F)ncnc2cc1OCCCN1CCCC1 | inactive: -24.5%
CC(C)c1ccc(N2C(=O)CSC23C(=O)N(Cc2ccccc2)c2ccccc23)cc1 (configuration not stated) | inactive: -0.804%
Cc1cc(NS(=O)(=O)c2ccc3oc(=O)c4ncn(C)c4c3c2)ccc1Br | inactive: -34.9%
Cc1ccc(NC(=O)Cn2c(=O)n(Cc3nc(C)no3)c(=O)c3cc4c(cc32)OCO4)cc1 | inactive: -16.6%
COc1ccc(NC(=O)N2CCN(S(=O)(=O)c3ccc4c(ccn4C)c3)CC2)c(OC)c1 | inactive: -20.5%
COc1cccc(CNC(=O)C(C)n2c(=O)cc(-c3ccccc3)c3c(C)nn(C)c32)c1 (configuration not stated) | inactive: -14.7%
COc1ccccc1N1CCN(C(=O)c2cnn(-c3ccc(F)cc3F)c2C2CCNCC2)CC1 | inactive: -13.8%
Cc1ccc(Nc2nnc(-c3ccc(C)c(S(N)(=O)=O)c3)c3ccccc23)cc1 | inactive: -42.2%
COc1cccc(C(=O)Nc2ccc3oc(-c4cccc5c(Br)cccc45)nc3c2)c1 | inactive: -8.86%
COc1cccc2c1C(=O)c1c(O)c3c(c(O)c1C2=O)C[C@@](O)(C(=O)CO)C[C@@H]3O[C@H]1C[C@H](N)[C@H](OC2CCCCO2)[C@H](C)O1 (some centres not stated) | inactive: -34.2%

Structure (SMILES) | activity change, positive = activation
CCc1ccccc1N(C)C(=O)c1ccc2c(=O)n3c(nc2c1)CCCCC3 | inactive: -17.6%
COc1ccc(S(=O)(=O)NCC(c2ccc(N(C)C)cc2)N2CCc3ccccc32)cc1OC (configuration not stated) | inactive: -2.55%
Cc1cccc(OCC(=O)Nc2cccc3cccnc23)c1C | inactive: 7.2%
COc1ccc(N2CCN(C(=O)CCc3c(C)nc4cc(-c5ccc(OC)cc5OC)nn4c3C)CC2)cc1 | inactive: -22.8%
CCOC(=O)c1c(NC(=O)c2ccccc2OCC)sc2c1CCC(CC)C2 (configuration not stated) | inactive: 6.07% [at 11.5 µM, percent change from vehicle, -100% = no light]
CN(C)S(=O)(=O)c1ccc(C(=O)NCCSc2c(-c3ccc(Cl)cc3)[nH]c3ccccc23)cc1 | inactive: -27.8%
O=C(CSc1nc(-c2ccc(F)cc2)[nH]c1-c1ccc(F)cc1)Nc1ccc2c(c1)OCCO2 | inactive: -33.3%
Cc1ccc(C)c(N2CCN(C(=O)c3cnn(-c4ccccc4Cl)c3C3CCN(C(=O)OC(C)(C)C)CC3)CC2)c1 | inactive: -47.4%
COc1ccc(Cc2nc3ccc(C(=O)NCc4ccccc4Cl)cc3o2)cc1 | inactive: -17.6%
CCOc1ccc(CC(=O)NCC(c2cccs2)S(=O)(=O)c2ccc(F)c(C)c2)cc1 (configuration not stated) | inactive: -7.41%
O=C(COc1ccc(Cl)cc1)Nc1ccccc1OCc1cc(=O)n2ccccc2n1 | inactive: -3.51%
CCc1ccc(NC(=O)C(CC)n2c(=O)c(-c3ccccc3NC(C)=O)nc3ccccc32)cc1 (configuration not stated) | inactive: -35.3%
Cc1ccc(NC(=O)C2CC(=O)N(c3ccc(OC(C)C)cc3)C2)cc1 (configuration not stated) | inactive: -14.7%
CCOC(=O)c1c(C)c(-c2ccccc2)n(CC(=O)NC(CC)Cc2ccccc2)c1C (configuration not stated) | inactive: -4.95%
CCN(CC)c1ccc(NC(=O)C2CCN(S(=O)(=O)c3cnc[nH]3)CC2)c(C)c1 | inactive: -2.95%
Cc1ccc2oc(-c3ccc(C)c(NC(=O)/C=C/c4ccc(Cl)cc4)c3)nc2c1 | inactive: 7.9%
Cc1cc(C)cc(NC(=O)Cn2cc(C(=O)c3cccs3)c3ccccc32)c1 | inactive: -27.7%
CC(=O)N1CCC(N(Cc2ccco2)C(=O)Nc2ccc(C)c(Cl)c2)CC1 | inactive: -22.1%
Cc1ccc2[nH]c3c(=O)n(CC(=O)N(CCN(C)C)Cc4ccccc4)ncc3c2c1 | inactive: -15.6%
